Experimental data: the supplement of paper PMC8728848
The list shows a part of the results.

Assays:
Assay in all cases: glycan array binding signal (z-score within array); higher = stronger binding
Settings in all cases: glycan notation: IUPAC condensed, linker removed
[1] = biological target: Fuc(a1-2)Gal
Method in brief: (§1)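 Negative Z-scores can be read as non-binding. The Z-score is calculated within each array and then averaged across arrays of one protein sequence at different concentrations or buffers and across linkers. Arrays, 3228 in all, were curated from the Consortium for Functional Glycomics database and kept only where the protein sequence was available.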

[2] = biological target: Fuc(a1-2)Gal(b1-3)GalNAc
Method in brief: as §1

[3] = biological target: Fuc(a1-2)Gal(b1-3)GalNAc(a1-3)[Fuc(a1-2)]Gal(b1-4)Glc
Method in brief: as §1

[4] = biological target: Fuc(a1-2)Gal(b1-3)GalNAc(a1-3)[Fuc(a1-2)]Gal(b1-4)GlcNAc
Method in brief: as §1

[5] = biological target: Fuc(a1-2)Gal(b1-3)GalNAc(b1-3)Gal
Method in brief: as §1

[6] = biological target: Fuc(a1-2)Gal(b1-3)GalNAc(b1-3)Gal(a1-4)Gal(b1-4)Glc
Method in brief: as §1

[7] = biological target: Fuc(a1-2)Gal(b1-3)GalNAc(b1-4)[Neu5Ac(a2-3)]Gal(b1-4)Glc
Method in brief: as §1

[8] = biological target: Fuc(a1-2)Gal(b1-3)GlcNAc
Method in brief: as §1

[9] = biological target: Fuc(a1-2)Gal(b1-3)GlcNAc(b1-2)Man(a1-3)[Fuc(a1-2)Gal(b1-3)GlcNAc(b1-2)Man(a1-6)]Man(b1-4)GlcNAc(b1-4)GlcNAc
Method in brief: as §1

[10] = biological target: Fuc(a1-2)Gal(b1-3)GlcNAc(b1-2)Man(a1-3)[Fuc(a1-2)Gal(b1-3)GlcNAc(b1-2)Man(a1-6)]Man(b1-4)GlcNAc(b1-4)[Fuc(a1-6)]GlcNAc
Method in brief: as §1

[11] = biological target: Fuc(a1-2)Gal(b1-3)GlcNAc(b1-3)Gal(b1-4)Glc
Method in brief: as §1

[12] = biological target: Fuc(a1-2)Gal(b1-3)GlcNAc(b1-3)GalNAc
Method in brief: as §1

[13] = biological target: Fuc(a1-2)Gal(b1-3)GlcNAc(b1-3)[Fuc(a1-2)Gal(b1-3)GlcNAc(b1-6)]GalNAc
Method in brief: as §1

[14] = biological target: Fuc(a1-2)Gal(b1-3)GlcNAc(b1-3)[Gal(b1-4)GlcNAc(b1-6)]Gal(b1-4)Glc
Method in brief: as §1

[15] = biological target: Fuc(a1-2)Gal(b1-3)GlcNAc(b1-3)[Neu5Ac(a2-6)Gal(b1-4)GlcNAc(b1-6)]Gal(b1-4)Glc
Method in brief: as §1

[16] = biological target: Fuc(a1-2)Gal(b1-3)GlcNAc6S
Method in brief: as §1

[17] = biological target: Fuc(a1-2)Gal(b1-3)[Fuc(a1-4)]GlcNAc
Method in brief: as §1

[18] = biological target: Fuc(a1-2)Gal(b1-3)[Fuc(a1-4)]GlcNAc(b1-2)Man(a1-3)[Fuc(a1-2)Gal(b1-3)[Fuc(a1-4)]GlcNAc(b1-2)Man(a1-3)]Man(b1-4)GlcNAc(b1-4)GlcNAc
Method in brief: as §1

[19] = biological target: Fuc(a1-2)Gal(b1-3)[Fuc(a1-4)]GlcNAc(b1-2)Man(a1-3)[Fuc(a1-2)Gal(b1-3)[Fuc(a1-4)]GlcNAc(b1-2)Man(a1-6)]Man(b1-4)GlcNAc(b1-4)[Fuc(a1-6)]GlcNAc(b1-4)[Fuc(a1-6)]GlcNAc
Method in brief: as §1

[20] = biological target: Fuc(a1-2)Gal(b1-3)[Fuc(a1-4)]GlcNAc(b1-3)[Fuc(a1-3)[Gal(b1-4)]GlcNAc(b1-6)]Gal(b1-4)Glc
Method in brief: as §1

[21] = biological target: Fuc(a1-2)Gal(b1-3)[Fuc(a1-4)]GlcNAc(b1-3)[Gal(b1-4)GlcNAc(b1-6)]Gal(b1-4)Glc
Method in brief: as §1

[22] = biological target: Fuc(a1-2)Gal(b1-4)Glc
Method in brief: as §1

[23] = biological target: Fuc(a1-2)Gal(b1-4)Glc6S
Method in brief: as §1

[24] = biological target: Fuc(a1-2)Gal(b1-4)GlcNAc
Method in brief: as §1

[25] = biological target: Fuc(a1-2)Gal(b1-4)GlcNAc(b1-2)Man
Method in brief: as §1

[26] = biological target: Fuc(a1-2)Gal(b1-4)GlcNAc(b1-2)Man(a1-3)[Fuc(a1-2)Gal(b1-4)GlcNAc(b1-2)Man(a1-6)]Man(b1-4)GlcNAc(b1-4)GlcNAc
Method in brief: as §1

[27] = biological target: Fuc(a1-2)Gal(b1-4)GlcNAc(b1-2)Man(a1-3)[Fuc(a1-2)Gal(b1-4)GlcNAc(b1-2)Man(a1-6)]Man(b1-4)GlcNAc(b1-4)[Fuc(a1-6)]GlcNAc
Method in brief: as §1

[28] = biological target: Fuc(a1-2)Gal(b1-4)GlcNAc(b1-2)[Fuc(a1-2)Gal(b1-4)GlcNAc(b1-4)]Man(a1-3)[Fuc(a1-2)Gal(b1-4)GlcNAc(b1-2)Man(a1-6)]Man(b1-4)GlcNAc(b1-4)GlcNAc
Method in brief: as §1

[29] = biological target: Fuc(a1-2)Gal(b1-4)GlcNAc(b1-3)Gal(b1-4)GlcNAc
Method in brief: as §1

[30] = biological target: Fuc(a1-2)Gal(b1-4)GlcNAc(b1-3)Gal(b1-4)GlcNAc(b1-2)Man(a1-3)[Fuc(a1-2)Gal(b1-4)GlcNAc(b1-3)Gal(b1-4)GlcNAc(b1-2)Man(a1-6)]Man(b1-4)GlcNAc(b1-4)GlcNAc
Method in brief: as §1

[31] = biological target: Fuc(a1-2)Gal(b1-4)GlcNAc(b1-3)Gal(b1-4)GlcNAc(b1-3)Gal(b1-4)GlcNAc
Method in brief: as §1

[32] = biological target: Fuc(a1-2)Gal(b1-4)GlcNAc(b1-3)GalNAc
Method in brief: as §1

[33] = biological target: Fuc(a1-2)Gal(b1-4)GlcNAc(b1-3)[Fuc(a1-2)Gal(b1-4)GlcNAc(b1-6)]GalNAc
Method in brief: as §1

[34] = biological target: Fuc(a1-2)Gal(b1-4)GlcNAc(b1-3)[Fuc(a1-3)[Gal(b1-4)]GlcNAc(b1-6)]Gal(b1-4)Glc
Method in brief: as §1

[35] = biological target: Fuc(a1-2)Gal(b1-4)GlcNAc(b1-6)GalNAc
Method in brief: as §1

[36] = biological target: Fuc(a1-2)Gal(b1-4)GlcNAc6S
Method in brief: as §1

[37] = biological target: Fuc(a1-2)Gal(b1-4)[Fuc(a1-3)]GlcNAc
Method in brief: as §1

B1: Clrb (Mus musculus) (protein)
chain: ITGATKTEQIPVNKTYAACPQNWIGVENKCFYFSEYPSNWTFAQAFCMAQEAQLARFDNQDELNFLMRYKANFDSWIGLHRESSEHPWKWTDNTEYNNTIPIRGEERFAYLNNNGISSTRIYSLRMWICSKLNSYSLHCQTPFFPSGTKHHHHHHHHG
glycan array binding signal (z-score) [1]: -0.291 | glycan array binding signal (z-score) [2]: -0.192 | glycan array binding signal (z-score) [3]: -0.421 | glycan array binding signal (z-score) [4]: -0.297 | glycan array binding signal (z-score) [5]: -0.518 | glycan array binding signal (z-score) [6]: -0.297 | glycan array binding signal (z-score) [7]: -0.337 | glycan array binding signal (z-score) [8]: -0.121 | glycan array binding signal (z-score) [9]: -0.336 | glycan array binding signal (z-score) [10]: 0.033 | glycan array binding signal (z-score) [11]: -0.418 | glycan array binding signal (z-score) [12]: -0.555 | glycan array binding signal (z-score) [13]: -0.265 | glycan array binding signal (z-score) [14]: -0.45 | glycan array binding signal (z-score) [15]: -0.377 | glycan array binding signal (z-score) [16]: -0.348 | glycan array binding signal (z-score) [17]: -0.043 | glycan array binding signal (z-score) [18]: -0.353 | glycan array binding signal (z-score) [19]: -0.312 | glycan array binding signal (z-score) [20]: -0.289 | glycan array binding signal (z-score) [21]: -0.316 | glycan array binding signal (z-score) [22]: -0.258 | glycan array binding signal (z-score) [23]: -0.545 | glycan array binding signal (z-score) [24]: -0.172 | glycan array binding signal (z-score) [25]: -0.421 | glycan array binding signal (z-score) [26]: 0.014 | glycan array binding signal (z-score) [27]: -0.198 | glycan array binding signal (z-score) [28]: -0.327 | glycan array binding signal (z-score) [29]: -0.474 | glycan array binding signal (z-score) [30]: -0.291 | glycan array binding signal (z-score) [31]: -0.289 | glycan array binding signal (z-score) [32]: -0.451 | glycan array binding signal (z-score) [33]: -0.296 | glycan array binding signal (z-score) [34]: -0.357 | glycan array binding signal (z-score) [35]: -0.391 | glycan array binding signal (z-score) [36]: -0.2 | glycan array binding signal (z-score) [37]: -0.327
